From publication PMC7847993
Where two headings read alike, the source gives them in different places. These are yes or no findings as the source states them, for the method shown. Binding seen in cells or lysates may run through a third protein. Some binding calls cover weakened binding; strength is not graded here. One block for each molecule: values may come before it.

Amino acid sequences for entries named in this document (tags omitted). A change or cut given only in a name is not applied to a line headed by its entry.
UniProt Q9ZSD4: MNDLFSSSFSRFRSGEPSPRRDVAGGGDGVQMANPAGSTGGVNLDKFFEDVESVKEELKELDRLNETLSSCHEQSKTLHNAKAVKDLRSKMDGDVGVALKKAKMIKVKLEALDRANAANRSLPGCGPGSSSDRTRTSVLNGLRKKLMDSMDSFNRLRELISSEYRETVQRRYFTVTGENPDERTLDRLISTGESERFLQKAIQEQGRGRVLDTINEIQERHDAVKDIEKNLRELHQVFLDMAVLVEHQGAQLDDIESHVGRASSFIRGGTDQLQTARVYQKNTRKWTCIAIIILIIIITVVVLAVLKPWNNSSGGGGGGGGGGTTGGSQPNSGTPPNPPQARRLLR

Key:
[1] = biological target: T1, Arabidopsis PIP2;7 (Arabidopsis thaliana) (UniProt P93004); assay: split reporter; ratiometric BiFC (pBiFCt-2in1-NN vector, p35S): nEYFP-SNARE and cEYFP-PIP co-expressed in N. benthamiana leaf cells, imaged 3 days after agro-infiltration; YFP/RFP ratio at the plasma membrane compared with SYP121/PIP2;7 (positive) and SNAP33/PIP2;7 (negative)
T1 sequence: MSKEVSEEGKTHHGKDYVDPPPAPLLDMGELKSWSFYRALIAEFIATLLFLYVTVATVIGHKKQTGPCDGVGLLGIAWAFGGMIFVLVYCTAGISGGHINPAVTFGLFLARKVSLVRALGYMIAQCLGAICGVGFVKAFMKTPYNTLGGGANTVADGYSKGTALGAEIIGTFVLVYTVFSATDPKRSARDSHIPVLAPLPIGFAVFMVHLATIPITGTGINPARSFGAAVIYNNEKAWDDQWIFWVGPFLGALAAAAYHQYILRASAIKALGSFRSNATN

[2] = biological target: T1, Arabidopsis PIP2;7 (Arabidopsis thaliana); assay: as above; remark: listed apart in the source

- binding [1]: binds
Molecule: SYP121ΔNHQ (from UniProt Q9ZSD4 284-346) (domain or fragment)

- binding [1]: binds
Molecule: SYP121ΔNH (from UniProt Q9ZSD4 193-346) (domain or fragment)

- binding [1]: no binding
Molecule: SYP121-Q (from UniProt Q9ZSD4 193-283) (domain or fragment)

- binding [1]: binds weakly
Molecule: SYP121-[143–222] (from UniProt Q9ZSD4 143-222) (domain or fragment)

- binding [1]: no binding
Molecule: SYP121-[171–200] (from UniProt Q9ZSD4 171-200) (domain or fragment)

- binding [1]: no binding
Molecule: SYP121-[143–200] (from UniProt Q9ZSD4 143-200) (domain or fragment)

- binding [1]: no binding
Molecule: SYP121ΔQC (from UniProt Q9ZSD4 1-192) (domain or fragment)

- binding [1]: binds weakly
Molecule: SYP121-[171–222] (from UniProt Q9ZSD4 171-222) (domain or fragment)

- binding [1]: no binding
Molecule: SYP121-H (from UniProt Q9ZSD4 44-192) (domain or fragment)

- binding [1]: binds
Molecule: SYP121-HQ (from UniProt Q9ZSD4 44-283) (domain or fragment)

- binding [2]: no binding
B1: SYP112 (protein, UniProt Q9ZPV9 1-305)
chain: MNDLMTKSFLSYVELKKQARTDMESDRDLEKGEDFNFDFSPADEENLSGFFQEIETIKTLIEEITHLLLDLQNLNEETKSTHSTKILRGLRDRMESNIVTISRKANTVKTLIETLEKRNVANRTSFKEGSCVDRTRTSITNGVRKKLRDTMSEFHRLRERIFADYREDLKRKYFLATGEEPSNEDMEKMISGSGSCSDLVKTFEVKPEMDLKTKERHEAVNDIKRSLNRLHQVFLDMAVLVETQGDRIDDIEANVANAGSFVSGGTNSLYYANQMKKKTKSWVLWVSILGVLILLVCVISMLASR

- binding [2]: binds
B2: SYP125 (protein, UniProt Q9SXB0 1-298)
chain: MNDLFSNSFKKNQAQLGDVEAGQETMNLDKFFEDVENVKDDMKGVEALYKKLQDSNEECKTVHNAKKVKELRAKMDGDVAMVLKRVKIIKQKLEALEKANANSRNVPGCGPGSSTDRTRSSVVSGLGKKLKDLMDSFQGLRARMNNEYKETVERRYFTITGEKADEQTIDNLIASGESENFLQKAIQEQGRGQILDTISEIQERHDAVKEIEKNLLELHQVFLDMAALVEAQGQQLNNIESHVAKASSFVRRGTDQLQDAREYQKSSRKWTCYAIILFIVIFILLLIPLLPHIMLMLK

- binding [2]: binds
B3: SYP131 (protein, UniProt Q9SRV7 1-306)
chain: MNDLLKGSLEFSRDRSNRSDIESGHGPGNSGDLGLSGFFKKVQEIEKQYEKLDKHLNKLQGAHEETKAVTKAPAMKSIKQRMERDVDEVGRISRFIKGKIEELDRENLENRTKPGCGKGTGVDRTRTATTIAVKKKFKDKISEFQTLRQNIQQEYREVVERRVFTVTGQRADEEAIDRLIETGDSEQIFQKAIREQGRGQIMDTLAEIQERHDAVRDLEKKLLDLQQVFLDMAVLVDAQGEMLDNIENMVSSAVDHVQSGNNQLTKAVKSQKSSRKWMCIAILILLIIIIITVISVLKPWTQKNGA

- binding [2]: no binding
B4: SYP41 (protein, UniProt O65359 1-322)
chain: MATRNRTLLFRKYRNSLRSVRAPLSSSSLTGTRSGGVGPVIEMASTSLLNPNRSYAPISTEDPGTSSKGAITVGLPPAWVDVSEEISVNIQRARTKMAELGKAHAKALMPSFGDGKEDQHNIESLTQEITFLLKKSEKQLQRLSASGPSEDSNVRKNVQRSLATDLQLLSMELRKKQSTYLKRLRQQKEDGMDLEMNLSRNRYRPEEDDFGDMLNEHQMSKIKKSEEVSVEREKEIQQVVESVNDLAQIMKDLSALVIDQGTIVDRIDYNIENVATTVEDGLKQLQKAERTQRHGGMVKCASVLVILCFIMLLLLILKEIFL

- binding [2]: no binding
B5: SNAP33 (protein, UniProt Q9S7P9 1-300)
chain: MFGLRKSPANLPKHNSVDLKSSKPNPFDSDDESDNKHTLNPSKRTTSEPSLADMTNPFGGERVQKGDSSSSKQSLFSNSKYQYKNNFRDSGGIENQSVQELEGYAVYKAEETTKSVQGCLKVAEDIRSDATRTLVMLHDQGEQITRTHHKAVEIDHDLSRGEKLLGSLGGMFSKTWKPKKTRPINGPVVTRDDSPTRRVNHLEKREKLGLNSAPRGQSRTREPLPESADAYQRVEMEKAKQDDGLSDLSDILGELKNMAVDMGSEIEKQNKGLDHLHDDVDELNFRVQQSNQRGRRLLGK

- binding [2]: binds
B6: SYP124 (protein, UniProt O64791 1-303)
chain: MNDLFSSSFKKYTDLKQQAQMDDIESGKETMNLDKFFEDVENVKDNMKGVETLYKSLQDSNEECKTVHNAKKVKELRAKMDGDVAQVLKRVKMIKQKLEALEKANANSRNVSGCGPGSSTDRTRTSVVSGLGKKLKDLMDSFQGLRARMNAEYKETVERRYFTITGEQADEQTIENLISSGESENFLQKAIQEQGRGQILDTISEIQERHDAVKEIEKNLIELHQVFLDMAALVESQGQQLNDIESHVSKASSFVRRGTDQLQDAREYQKSSRKWTCYAILLFIVVFALLLIPALPHIMLMLK

- binding [2]: binds
B7: SYP111 (protein, UniProt Q42374 1-310)
chain: MNDLMTKSFMSYVDLKKAAMKDMEAGPDFDLEMASTKADKMDENLSSFLEEAEYVKAEMGLISETLARIEQYHEESKGVHKAESVKSLRNKISNEIVSGLRKAKSIKSKLEEMDKANKEIKRLSGTPVYRSRTAVTNGLRKKLKEVMMEFQGLRQKMMSEYKETVERRYFTVTGEHANDEMIEKIITDNAGGEEFLTRAIQEHGKGKVLETVVEIQDRYDAAKEIEKSLLELHQVFLDMAVMVESQGEQMDEIEHHVINASHYVADGANELKTAKSHQRNSRKWMCIGIIVLLLIILIVVIPIITSFSSS

- binding [2]: no binding
B8: SYP22 (protein, UniProt P93654 1-268)
chain: MSFQDLESGRGRSTRKFNGGRQDSTQAVASGIFQINTGVSTFQRLVNTLGTPKDTPELREKLHKTRLHIGQLVKDTSAKLKEASETDHQSGVNPSKKIADAKLARDFQAVLKEFQKAQQTAAERETTYTPFVPQSALPSSYTAGEVDKVPEQRAQLQESKRQELVLLDNEIAFNEAVIEEREQGIQEIHQQIGEVNEIFKDLAVLVNDQGVMIDDIGTHIDNSRAATSQGKSQLVQAAKTQKSNSSLTCLLLVIFGIVLLIVIIVLAA

- binding [2]: binds
B9: SYP123 (protein, UniProt Q9ZQZ8 1-305)
chain: MNDLISSSFKRYTDLNHQVQLDDIESQNVSLDSGNLDEFFGYVESVKEDMKAVDEIHKRLQDANEESKTVHDSKAVKKLRARMDSSVTEVLKRVKMIKTKLVALEKSNAAQRKVAGCGPGSSADRTRTSVVSGLGKKLKDMMDDFQRLRTKMATEYKETVERRYFTVTGQKADEETVEKLISSGESERFLQKAIQEQGRGQVMDTLSEIQERHDTVKEIERSLLELHQVFLDMAALVEAQGNMLNDIESNVSKASSFVMRGTDQLHGAKVLQRNNRKWACIATILAIVVVIVILFPILFNTLLRP

- binding [2]: binds
B10: SYP132 (protein, UniProt Q8VZU2 1-304)
chain: MNDLLKGSFELPRGQSSREGDVELGEQQGGDQGLEDFFKKVQVIDKQYDKLDKLLKKLQASHEESKSVTKAPAMKAIKKTMEKDVDEVGSIARFIKGKLEELDRENLANRQKPGCAKGSGVDRSRTATTLSLKKKLKDKMAEFQVLRENIQQEYRDVVDRRVYTVTGERADEDTIDELIETGNSEQIFQKAIQEQGRGQVMDTLAEIQERHDAVRDLEKKLLDLQQIFLDMAVLVDAQGEMLDNIESQVSSAVDHVQSGNTALQRAKSLQKNSRKWMCIAIIILLIVVAVIVVGVLKPWKNKSA

- binding [2]: no binding
B11: VAMP722 (protein, UniProt P47192 1-221)
chain: MAQQSLIYSFVARGTVILVEFTDFKGNFTSIAAQCLQKLPSSNNKFTYNCDGHTFNYLVENGFTYCVVAVDSAGRQIPMAFLERVKEDFNKRYGGGKAATAQANSLNKEFGSKLKEHMQYCMDHPDEISKLAKVKAQVSEVKGVMMENIEKVLDRGEKIELLVDKTENLRSQAQDFRTQGTQMRRKMWFQNMKIKLIVLAIIIALILIIILSICGGFNCGK

- binding [2]: no binding
B12: SYP51 (protein, UniProt Q9SA23 1-232)
chain: MASSSDSWMRAYNEALKLSEEINGMISERSSSAVTGPDAQRRASAIRRKITIFGNKLDSLQSLLAEIHGKPISEKEMNRRKDMVGNLRSKANQMANALNMSNFANRDSLLGPDIKPDDSMSRVTGMDNQGIVGYQRQVMREQDEGLEQLEGTVMSTKHIALAVSEELDLQTRLIDDLDYHVDVTDSRLRRVQKSLAVMNKNMRSGCSCMSMLLSVLGIVGLAVVIWMLVKYM

- binding [2]: binds
B13: NtSYP121 (protein, UniProt Q9ZSD5 1-300)
chain: MNDLFSGSFSRFRADDQSDSHAIEMGDITGGVNLDKFFEDVEAIKDELKGLEKIYSQLQSSHEKSKTLHNAKAVKDLRSNMDNDVSMALKKAKFIKVRLEALDRSNAANRSLPGCGPGSSSDRTRTSVVNGLRKKLQESMNQFNELRQKMASEYRETVQRRYYTVTGENPDEAVLDTLISTGQSETFLQKAIQEQGRGQVMDTVMEIQERHEAVKELERNLKELHQVFLDMAVLVESQGAQLDDIESQVNRANSFVRGGAQQLQVARKHQKNTRKWTCFAIILLLIIILVVVLSIQPWKK
